Experimental data published in the supplement of paper PMC11417369.
The other results are listed elsewhere or left out.

tested on: PfHDP1 homeodomain (GST-tagged); assay: gcPBM binding intensity (ln(normalized median fluorescence intensity)); higher = stronger DNA binding
Summary of the method: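 An Agilent 4 × 180k array of primer-extended double-stranded 36-bp intergenic genomic probes, with negative controls, was incubated for 1 h with GST-tagged P. falciparum DNA-binding domains expressed in E. coli. Alexa488 anti-GST antibody detected bound protein, scanned at 488 nm. Binding intensity is the highest Masliner-normalised natural-log median intensity across replicate spots of either probe orientation.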

Sequence	gcPBM binding intensity (ln)
AATAAAACATAATAATGTACTCAAAGGTTTAACTTG [XGTACX_site4711]	6.29
TATTTATAATTATAATAATATATATATATATATATA [TGCATGCA_negctrl_site173]	9.1
ATTGTGTTAATAAAATGTACATTTTCTCTACATTAA [XGTACX_site2766]	6.7
TTTGAATAAAAACAAAAAATTAAATTAAATTAAATA [CACACA_negctrl_site312]	6.13
TCCAATATATTTATGAGTACTTATAAATTATACGTT [XGTACX_site742]	6.7
TTCATACATATTTGAAGTACATTTAAAAATGTCCTT [XGTACX_site747]	6.28
GAAGTAATTTCATATACACACATATACATACATACA [CACACA_site6753]	7.1
ATATATATATATGTATGTACGTATGTATTTACTGCT [XGTACX_site3839]	8.95
ATTATATAGCTAAAAAAAATAAATTAAAAATATTAA [TGCATGCA_negctrl_site505]	5.99
ATATTTACAAGTAATAGTACAGTTAATTATATAAAA [XGTACX_site4856]	6.22
AATGTACAAATACGTACACACATATTTATATTTATA [CACACA_site6833]	6.35
AAGAATGTTATTAGTACACACAATTATTATAGAAAT [CACACA_site7714]	6.47
CTACCTTTAATATATACACACACATAAAAAAAATAT [CACACA_site8548]	7
TATATATATATATATACATGCATACATATACATACA [TGCATGCA_site897]	9.24
ATATATATATATAATAAACACACAAATAGATATAAC [CACACA_site9234]	8.73
AGATAAGATATATACACACACATAAATACGTACAAA [CACACA_site6639]	7.07
TTTTTTTTTACTTGTTGTACTTTTTCAAGGTATTGT [XGTACX_site7778]	6.46
ATATAAAAAAATTGCACACATAAATAAATACAGATA [CACACA_site4806]	9.36
TAAAAATTGAAGCACACACACAAAAGAAATACAATA [CACACA_site1113]	6.92
ATTTTCTTATATATATTTTGTATATATTTTGTACAT [CACACA_negctrl_site1496]	6.67
ACCCATATAATATATACACACATATATATATATATA [CACACA_site4731]	9.42
TAATGTATTATATTTTGTTTTCTTCCACCAAAAAAA [XGTACX_negctrl_site64]	6.41
AAAAAAAAAATTAAATGTACACACACCTTAAACAAT [XGTACX_site3848]	6.74
AATGTACCCACACCCACACACAAACAAATATATATA [CACACA_site2751]	7.05
